Test results from article PMC4336329 (PLoS ONE, 2015).
The campaign covered roughly 310,000 compounds. About 2,200 (0.71%) showed an effect of 50% or more. The effect is printed as a negative number. This is one part of the list.

Molecular target: human ether-à-go-go-related gene (hERG) potassium channel (human, UniProt Q12809)
Assay: primary screen, population patch clamp on CHO cells stably expressing hERG
Experimental: Briefly, Chinese hamster ovary (CHO) cells stably expressing the hERG channel were dislodged from tissue culture flasks and dispensed into PPC plates. […] During the recording, background leak currents were estimated by a 100 ms step to -80 mV from an initial holding potential of -70 mV and subtracted from the subsequent current measurement. The campaign was conducted in two phases using slight differences in recording protocol. In the first phase, the initial voltage pulse used a 100 ms step to -30 mV from a holding potential of -70 mV, a 2 s conditioning step to +25 mV, and a 2 s test step to -30 mV. During the second phase of the screen, the potential during the conditioning step was raised to +45 mV. In both phases of the campaign, a secondary voltage pulse was applied using the same parameters as the second phase initial pulse. The initial and secondary pulses were applied in the absence of compound, and upon application of 1 μM and 10 μM test concentrations. Small molecule effects on hERG current density were quantified by […].

Sequence of human ether-à-go-go-related gene (hERG) potassium channel (Q12809 whole entry, looked up): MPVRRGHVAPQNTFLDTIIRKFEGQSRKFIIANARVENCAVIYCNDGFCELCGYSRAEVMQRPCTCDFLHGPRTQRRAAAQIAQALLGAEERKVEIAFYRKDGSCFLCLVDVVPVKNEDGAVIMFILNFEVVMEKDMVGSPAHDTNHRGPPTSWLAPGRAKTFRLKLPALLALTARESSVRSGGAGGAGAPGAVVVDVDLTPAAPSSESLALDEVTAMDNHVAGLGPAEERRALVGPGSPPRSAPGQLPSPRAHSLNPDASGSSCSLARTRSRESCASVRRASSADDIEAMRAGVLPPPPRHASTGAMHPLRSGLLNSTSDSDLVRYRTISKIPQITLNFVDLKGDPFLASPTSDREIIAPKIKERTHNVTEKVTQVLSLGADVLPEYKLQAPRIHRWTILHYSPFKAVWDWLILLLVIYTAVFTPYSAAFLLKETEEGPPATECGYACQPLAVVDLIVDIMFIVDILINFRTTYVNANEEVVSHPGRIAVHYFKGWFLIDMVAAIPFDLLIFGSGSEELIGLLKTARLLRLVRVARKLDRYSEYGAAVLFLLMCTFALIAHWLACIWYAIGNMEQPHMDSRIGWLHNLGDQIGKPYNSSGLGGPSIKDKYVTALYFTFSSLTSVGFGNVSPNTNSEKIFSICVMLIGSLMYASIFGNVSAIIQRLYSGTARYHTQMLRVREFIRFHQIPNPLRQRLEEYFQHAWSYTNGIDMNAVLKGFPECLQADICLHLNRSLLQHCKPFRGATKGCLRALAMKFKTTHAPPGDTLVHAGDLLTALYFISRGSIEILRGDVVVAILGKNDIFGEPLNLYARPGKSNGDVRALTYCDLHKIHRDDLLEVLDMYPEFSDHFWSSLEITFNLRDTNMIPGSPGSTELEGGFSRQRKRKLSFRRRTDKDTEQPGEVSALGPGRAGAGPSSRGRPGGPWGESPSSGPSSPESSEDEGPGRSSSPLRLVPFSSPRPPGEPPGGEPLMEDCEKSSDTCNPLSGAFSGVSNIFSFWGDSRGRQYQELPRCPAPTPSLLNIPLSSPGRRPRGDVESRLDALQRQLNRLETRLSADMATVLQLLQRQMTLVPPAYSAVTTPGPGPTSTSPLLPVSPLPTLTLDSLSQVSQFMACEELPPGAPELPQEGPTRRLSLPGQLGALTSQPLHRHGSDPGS

| Compound | hERG current change (%, negative = inhibition) at 1uM [%] |
| --- | --- |
| CN1C(=O)C(c2ccc([N+](=O)[O-])cc2[N+](=O)[O-])C(=O)N(C)C1=O | 15.2 |
| CCc1cc(=O)oc2cc(C)cc(OC(C)C(=O)NCc3ccncc3)c12 (stereo not shown) | -14 |
| COc1cc(NS(=O)(=O)c2ccc(NC(=O)CSC3=NCCS3)cc2)nc(OC)n1 | 14.3 |
| Oc1cccc(/C=N/Nc2ccc(Cl)nn2)c1 | 9.59 |
| COc1ccc(-n2c(-c3ccc(Cl)cc3Cl)n[nH]c2=S)c(OC)c1 | 11.7 |
| CC(=O)NC1CC2CCCC(C1)N2CC(=O)NCc1ccc(F)cc1 (stereo not shown) | 7.83 |
| COc1ccc(NS(=O)(=O)c2cc3c4c(c2)C(C)C(=O)N4CCC3)cc1 (stereo not shown) | 13.5 |
| Cc1ccc(NC(=O)Cn2ncn3c(cc4ccccc43)c2=O)c(C)c1 | 8.22 |
| CN(C)c1ccc(C(=O)N/N=C/c2ccccn2)cc1 | 6.32 |
| Cc1n[nH]c(=O)nc1NCCN(C)C | 17.4 |
| Cc1ccc(C)c(NC(=O)CCC(=O)N/N=C/c2cccnc2)c1 | 13.7 |
| CC(=O)C1=NOC(CNC(=O)c2c(-c3ccccc3Cl)noc2C)C1 (stereo not shown) | 12.8 |
| C[C@H](NC(=O)c1[nH]cnc1C(=O)Nc1ccc(CNC(=O)OC(C)(C)C)cc1)C(=O)OC(C)(C)C | 12.8 |
| CCS(=O)(=O)c1ccc(-c2cccc(NC(=O)COc3ccc(Cl)cc3)c2)nn1 | 7.79 |
| COC(=O)c1cccc(CSc2nnc(C)s2)c1 | 8.74 |
| CCCC(=O)Nc1nnc(-c2cccc(OCC)c2)s1 | 7.97 |
| CCn1c(C)cc(/C=C2/SC(=S)N(CC(=O)O)C2=O)c1C | 10.8 |
| CCCn1c(N)c(C(=O)CSc2ncn[nH]2)c(=O)n(C)c1=O | 17.2 |
| NS(=O)(=O)c1ccc(NC(=O)COC(=O)CCc2ccc(S(=O)(=O)N3CCOCC3)cc2)cc1 | 7.23 |
| CS(=O)(=O)c1cnc2c(-c3ccsc3)cnn2c1N | 13.3 |

| Compound | hERG current change (%, negative = inhibition) at 1uM [%] |
| --- | --- |
| COCCn1c(SCC(=O)NNC(=O)Cc2ccccc2)nc2ccccc2c1=O | 11 |
| C#CCN1CCN(c2ccc(F)cc2)CC1 | 3.75 |
| CCN(Cc1ccccc1)C(c1ccncc1)c1nnnn1C(C)(C)C (stereo not shown) | 6.1 |
| O=C(c1sc2ccccc2c1Cl)N(Cc1ccco1)C1CCS(=O)(=O)C1 (stereo not shown) | 7.91 |
| CCOC(=O)C1CN(C)CCC1=O.Cl (stereo not shown) | 3.37 |
| O=C(c1cccs1)N1CCCC1 | 10.5 |
| Cc1ccc(-c2csc(NC(=O)CCNC(=O)c3ccco3)n2)cc1 | 9.23 |
| CCOC(=O)c1[nH]ncc1CN1CCC(Cc2ccccc2)(C(=O)OCC)CC1 | 8.85 |
| COc1ccc(S(=O)(=O)N(C(=O)C(C)C)c2ccc3oc(=O)sc3c2)cc1 | 6.07 |
| Brc1cccc(OCCCN2CCCCCC2)c1.O=C(O)C(=O)O | -40.9 |
| CC(=O)c1cccc(NC(=O)CSc2nc(=O)n(CCCN3CCOCC3)c3c2CCC3)c1 | 1.6 |
| Cc1c(NC(=O)c2ccc(S(=O)(=O)N3CCOCC3)cc2)c(=O)n(-c2ccccc2)n1C | 8.06 |
| O=C(OCCCN1CCCCC1)c1ccc(O)cc1 | -17.7 |
| CSCCC(NC(=O)c1ccccc1)C(=O)NC1CC1 (stereo not shown) | 17.4 |
| O=C(CSc1nc2c(cnn2-c2ccccc2)c(=O)[nH]1)N1CCCCC1 | 1.88 |
| Cc1cccc(N2CC(C(=O)Nc3nc4ccc(S(C)(=O)=O)cc4s3)CC2=O)c1C (stereo not shown) | 12.3 |
| CCNC(=O)NCCNC(=O)c1cc(OCC(F)(F)F)ccc1OCC(F)(F)F | 9.06 |
| CCCCCc1c(O)nc(SCCN(CC)CC)[nH]c1=O.Cl | 6.75 |
| CCOCCCNc1nc2c(c(=O)[nH]c(=O)n2C)n1CCCc1ccccc1 | -1.39 |
| O=C(Cc1ccccc1)NN1C(=O)c2ccccc2C1=O | -2.73 |

| Compound | hERG current change (%, negative = inhibition) at 1uM [%] |
| --- | --- |
| O=C(C1CCN(S(=O)(=O)c2ccccc2)CC1)N1CCCCCC1 | -0.696 |
| COc1ccc2c(c1)c1c3n2CCN(C)C3=NCC1.Cl | -54.9 |
| Cc1cccc(NC(=O)C2C3C=CC(C4CC34)C2C(=O)O)c1 (stereo not shown) | 3.09 |
| CC1(C)COC2(OC1)C(=O)N(CN1CCOCC1)c1ccccc12 | 6.19 |
| CCCn1c2c(c(O)c(C(=O)NCc3ccccc3)c1=O)CCCC2 | 16.1 |
| Cc1ccc(-c2nnc(SCC(=O)Nc3nccs3)n2N)cc1 | -11.9 |
| COc1cc(C)ccc1Oc1ncnc(N)c1[N+](=O)[O-] | 10.5 |
| Cc1ccc(Cl)cc1N1CCN(C(c2cccnc2)c2nnnn2C2CCCCC2)CC1 (stereo not shown) | 6.68 |
| Cc1ccc(CNc2ccc(N3CCOCC3)c(Cl)c2)cc1 | 9.05 |
| Cc1ccc2nc(N3C(=O)C(O)=C(C(=O)c4ccco4)C3c3ccc(C)o3)sc2c1.O=C(O)C(=O)O (stereo not shown) | 7.32 |
| CCCCNC(=O)CN(Cc1ccco1)S(=O)(=O)c1ccc(C(C)=O)cc1 | -6.69 |
| Cc1cccc(NS(=O)(=O)c2ccc3c(c2)NC(=O)CC(=O)N3)c1 | 18.4 |
| Oc1cccc2ccc[n+](CC(O)Cn3c4ccccc4c4ccccc43)c12.[Cl-] (stereo not shown) | 6.01 |
| Cc1ccc(O)c(C(=O)c2cc(C#N)c(=O)n(Cc3ccccc3)c2)c1 | 12.2 |
| COc1cccc(CCNC(=O)CCCC(=O)c2ccccc2)c1 | 9.09 |
| O=C(N[C@H](Cc1cc(=O)[nH]c2ccccc12)C(=O)O)c1ccc(Cl)cc1 | 10.3 |
| CN(Cc1ccccc1O)CC1CCCN(CCc2ccc(Cl)cc2)C1 (stereo not shown) | -40.3 |
| CCCc1cc(=O)oc2cc(C)cc(OCC(=O)NC3CCN(Cc4ccccc4)CC3)c12 | -0.282 |
